{"source": "paper PMC4752459", "binders": {"B1": {"name": "Nub-Sla2 (protein, UniProt P33338 1-968)", "chain": "MSRIDSDLQKALKKACSVEETAPKRKHVRACIVYTWDHQSSKAVFTTLKTLPLANDEVQLFKMLIVLHKIIQEGHPSALAEAIRDRDWIRSLGRVHSGGSSYSKLIREYVRYLVLKLDFHAHHRGFNNGTFEYEEYVSLVSVSDPDEGYETILDLMSLQDSLDEFSQIIFASIQSERRNTECKISALIPLIAESYGIYKFITSMLRAMHRQLNDAEGDAALQPLKERYELQHARLFEFYADCSSVKYLTTLVTIPKLPVDAPDVFLINDVDESKEIKFKKREPSVTPARTPARTPTPTPPVVAEPAISPRPVSQRTTSTPTGYLQTMPTGATTGMMIPTATGAANAIFPQATAQMQPDFWANQQAQFANEQNRLEQERVQQLQQQQAQQELFQQQLQKAQQDMMNMQLQQQNQHQNDLIALTNQYEKDQALLQQYDQRVQQLESEITTMDSTASKQLANKDEQLTALQDQLDVWERKYESLAKLYSQLRQEHLNLLPRFKKLQLKVNSAQESIQKKEQLEHKLKQKDLQMAELVKDRDRARLELERSINNAEADSAAATAAAETMTQDKMNPILDAILESGINTIQESVYNLDSPLSWSGPLTPPTFLLSLLESTSENATEFATSFNNLIVDGLAHGDQTEVIHCVSDFSTSMATLVTNSKAYAVTTLPQEQSDQILTLVKRCAREAQYFFEDLMSENLNQVGDEEKTDIVINANVDMQEKLQELSLAIEPLLNIQSVKSNKETNPHSELVATADKIVKSSEHLRVDVPKPLLSLALMIIDAVVALVKAAIQCQNEIATTTSIPLNQFYLKNSRWTEGLISAAKAVAGATNVLITTASKLITSEDNENTSPEQFIVASKEVAASTIQLVAASRVKTSIHSKAQDKLEHCSKDVTDACRSLGNHVMGMIEDDHSTSQQQQPLDFTSEHTLKTAEMEQQVEILKLEQSLSNARKRLGEIRRHAYYNQDDD"}, "B2": {"name": "Nub-Syp1 (protein, UniProt P25623 1-870)", "chain": "MTEQRTKYADSILTTKSPYEATETIRIRLSQVKLLNKDFYLLFKELANLKRNYAQQLRKIIAENEDITKILNAQMIESNVLTPQEMSAFRFNSLGELRNVWDTVIEELKSDLKSSTEYYNTLDQQVVRELKESVENNTSWRESKDLHSKLSKNAASIEHYSKNNENSSHLEEARRQWDQQSPYLFELFETIDYNRLDTLKNCMLRFQTSFSDYLLNTTKECETVMTKFLAFEPQSEIDRFAKDASQYNFQLSSSSKEVVPNNASPASATGARPVSVSNGAANTEREKKSPQKDKRKSAFGNIGHRLASASSSLTHNDLMNNEFSDSTNNSSLKSKKSSHTLRSKVGSIFGRNKTKNKRQQQSSSNSHIQASITETPNNSSTRVSSTATSSIYQKQRRPTYSSSKSNNWTPGEASDTPPLPPHATPKNVDAPVTADTPPAQTFTPSEVPPSTPQQSSPPTAKEPDSSNLPKTVPISISQPPLQPQSKTKPLPVEPASPSISLPTATVDNQPSGQVDSRPLHIRAPALPPSRKQNFIHNRDSQLYDSLPNHGSGATPTSSSLSSIPQERPVSTLSSQITGELRELNPQATGSSTSLVGQSLFQHSSLDTSQFGLNASIAEVLNASFKDGMLQNSQLIGEIALNYLPNSVMNSPLPIGINLRINNGAKFEKVILNQAFIERVAPEEFKVNPSFIDSRTLGAIKYSIKEPIAPIVIHPVWRFESHQASVVLTVKMSPSLPDEISQIVIEDLVVFVNIDGANATSALSKPQGSFSKEKKRITWRFKEPVVLTRNGEGQRLIARFITDGLAHESAKGVITKFTISETDNVALPHSGAGSGITLTCQELDENNPFGGEWLDVNTKRTLTTGNYHGLA"}, "B3": {"name": "Nub-Gin4 (protein, UniProt Q12263 1-1142)", "chain": "MAINGNSIPAIKDNTIGPWKLGETLGLGSTGKVQLARNGSTGQEAAVKVISKAVFNTGNVSGTSIVGSTTPDALPYGIEREIIIMKLLNHPNVLRLYDVWETNTDLYLVLEYAEKGELFNLLVERGPLPEHEAIRFFRQIIIGVSYCHALGIVHRDLKPENLLLDHKYNIKIADFGMAALETEGKLLETSCGSPHYAAPEIVSGIPYQGFASDVWSCGVILFALLTGRLPFDEEDGNIRTLLLKVQKGEFEMPSDDEISREAQDLIRKILTVDPERRIKTRDILKHPLLQKYPSIRDSKSIRGLPREDTYLTPLSESNSSIDATILQNLVILWHGRDPEGIKEKLREPGANAEKTLYALLYRFKCDTQKELIKQQQVKKRQSISSVSVSPSKKVSTTPQRRRNRESLISVTSSRKKPISFNKFTASSASSSNLTTPGSSKRLSKNFSSKKKLSTIVNQSSPTPASRNKRASVINVEKNQKRASIFSTTKKNKRSSRSIKRMSLIPSMKRESVTTKLMSTYAKLAEDDDWEYIEKETKRTSSNFATLIDEIFEYEKYEQIRKEKEELERKVREAKAREELERRRRKQEEKERARKLLEKEDLKRKQEELKKQIEIDISDLEQELSKHKEEKLDGNIRSISAPMENEEKNINHLEVDIDNILRRRNFSLQTRPVSRLDPGIMFSSPTEEVSPVEPKRTENERLTTEKKILETIRRSKFLGSSFNIDKELKLSKMEYPSIIAPQRLSEERVVSDSNDGYESLILPKDGNGVSQLKDSTATTAPVSDGRLRKISEIRVPQFTRKSRHFSESNKRLSVLSMYSTKESFTNLVDILKNGNLDVNNQQSQRIPTPRSADDSEFLFETVNEEAEYTGNSSNDERLYDVGDSTIKDKSALKLNFADRFNGSNEAKQTDNLHLPILPPLNGDNELRKQNSQEGDQAHPKIKSMIPESGSSSHTEKEEENEEKEEKKPEQHKQEEDQEKREKVVDDMEPPLNKSVQKIREKNAGSQAKDHSKDHLKEHKQDKNTAIGNGSFFRKFSKSSDKTMELYAKISAKQLFNGLEKLLRGWTQYGLKNIKSHPNNLTLTGKLSSDNIFSLRSTLFEVNIYPRGKMSVVQFKKVSGSFKAVKKLVNEVENVLNKEGVLQK"}, "B4": {"name": "Nub-Ste20 (protein, UniProt Q03497 1-939)", "chain": "MSNDPSAVSELPDKDSLDNGISNDNERAMGGNGDGGDGLRLPRTTGTLNVNALQKGTNAAHEAGGYKSMDPAKNAETTNDDDNNVVSLDDPIQFTRVSSSSVISGMSSSMSPHSNIDETKSLEAVTPNINTSNITPDHSADNTFSTINASESDHQFNDTLLSKLSLTDSTETIENNATVKHQQPVASSTVNSNKSSTDIRRATPVSTPVISKPSMTTTPRQINSASHSLSNPKHKQHKPKVKPSKPEAKSKPVSVKKSFPSKNPLKNSSPPKKQTEKSYYSSSSKKRKSGSNSGTLRMKDVFTSFVQNIKRNSQDDKRASSSSNNSSSSSITTALRISTPYNAKHIHHVGVDSKTGEYTGLPEEWEKLLTSSGISKREQQQNMQAVMDIVKFYQDVTETNGEDKMFKTFNTTTGLPGSPQVSTPPANSFNKFPPSTSDSHNYGSRTGTPMSNHVMSPTLNTDSSSANGKFIPSRPAPKPPSSASASAPIIKSPVMNSAANVSPLKQTHAPTTPNRTSPNRSSISRNATLKKEEQPLPPIPPTKSKTSPIISTAHTPQQVAQSPKAPAQETVTTPTSKPAQARSLSKELNEKKREERERRKKQLYAKLNEICSDGDPSTKYANLVKIGQGASGGVYTAYEIGTNVSVAIKQMNLEKQPKKELIINEILVMKGSKHPNIVNFIDSYVLKGDLWVIMEYMEGGSLTDVVTHCILTEGQIGAVCRETLSGLEFLHSKGVLHRDIKSDNILLSMEGDIKLTDFGFCAQINELNLKRTTMVGTPYWMAPEVVSRKEYGPKVDIWSLGIMIIEMIEGEPPYLNETPLRALYLIATNGTPKLKEPENLSSSLKKFLDWCLCVEPEDRASATELLHDEYITEIAEANSSLAPLVKLARLKKVAENMDADEDNDDDNDNEHINKTNNCDDNNDSKETVNLDVTEDDKQK"}, "B5": {"name": "Nub-Mrc1 (protein, UniProt P25588 1-1096)", "chain": "MDDALHALSSLTAKKRTTTYKKVAVPILDENDNTNGNGPNDIDNPPELTGNGFLFANATLNRVKNRLEGKKAPEQNHNNGKDRSENSLPTQLISNLYDGGEELEKSEVKDNSYSEKNVSSSFTQTQRIPVSIQQDKVFNVPIHSVNDGKPTQLIKEDGLVNETSQALKTPLTTGRPGATQRIDSSGATSQTQPIKSIEPQSQIITTSSNHSNALSPKIPIIPTELIGTSPLFQSIQNRGPDTQMDVPPQTAHDEDKTQAIGIPQATHQEQKTQIDTVAQTLQDEVPHTLKIREIQSELASEDSKREKARNVEYKKPQKPIPTKKFFSKESFLADFDDSSSNEDDDIKLENAHPKPVQNDDELHENKSVELNLTDETRINEKRVPLLSSYANNLKREIDSSKCITLDLDSDSDEYGDDDMDSIKLSKDESVLPISQLSKATILNLKARLSKQNQKLSQRPNKSKDPKVDHNVLLNTLRKASRKQILDHQKEVIETKGLKLEDMAKEKEIVENLLEQEILRNKRIRQKEKRREKLEENDFQLNAHDSGSDSGSESSGFALSGNEIADYESSGSENDNRRESDSEKEDDEIILKQKKSHHVKHIINESDSDTEVEAKPKEKADESLPKRIAINLGHYGDNIGEDTDKFQETNVLDTQNIEEVMAERNTIENEVKDDVYVNEEADEAIRRQLIDKEKLQLKQKEKEHEAKIKELKKRGVTNFFEMEAEESEDEWHGIGGADGEGSDDYDSDLEKMIDDYSKNNFNPHEIREMLAAENKEMDIKMINKILYDIKNGGFRNKRAKNSLELELSDDDEDDVLQQYRLKRRELMRKRRLEIGDDAKLVKNPKSSAFFESMVEDIIEYKNPFGAEEEYNLDITSTATDLDTQDNSINVGDNTGNNEQKPVDQKNKKVIISEDFVQKSLSFLKSNNYEDFETDKELSRIQHGNDEAIEDLYTLKQNSSIKSFTNSQTDSTTSKTVNTIIDLEKRPEDEDEVENGDTSLVGVFKHPSIIKSFASRTDINDKFKEGNKTVKILKSYKTVGSSKASITYMGKTRKLIAPKRKTEGSHRYHHDHHNKKMKMKTKTKSNKLFESGQDSFDN"}}, "note": "Results are given in words; binding and its absence hold for the method and conditions named. In cells and extracts the contact can be indirect. Some results given as binding are weak or reduced against the parent protein; the word gives no strength."}
{"biological_target": "T1, Shs1-CCG (S. cerevisiae) (UniProt Q07657)", "T1 sequence": "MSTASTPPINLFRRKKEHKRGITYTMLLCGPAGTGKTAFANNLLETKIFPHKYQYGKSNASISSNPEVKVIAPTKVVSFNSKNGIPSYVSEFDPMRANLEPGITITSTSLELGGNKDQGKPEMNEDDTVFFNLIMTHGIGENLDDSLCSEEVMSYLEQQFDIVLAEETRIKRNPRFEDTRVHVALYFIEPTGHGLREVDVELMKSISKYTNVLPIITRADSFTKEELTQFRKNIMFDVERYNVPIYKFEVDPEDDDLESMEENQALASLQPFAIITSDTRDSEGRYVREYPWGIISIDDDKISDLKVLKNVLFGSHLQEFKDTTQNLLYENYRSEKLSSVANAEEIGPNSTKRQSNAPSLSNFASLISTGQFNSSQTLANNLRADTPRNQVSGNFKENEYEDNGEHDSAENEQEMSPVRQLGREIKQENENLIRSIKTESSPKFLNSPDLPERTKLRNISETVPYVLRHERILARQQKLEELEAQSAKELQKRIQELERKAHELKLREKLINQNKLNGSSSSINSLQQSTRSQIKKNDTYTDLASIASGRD", "experiment": "split reporter; steady-state SPLIFF (split-ubiquitin, mCherry-Cub-GFP): diploid cells with Shs1-CCG and a Nub fusion, 100 μM Cu2+, GFP/mCherry ratio at the bud neck; strong > 70%, weak > 30%, below 30% CCG to CC conversion non-interacting"}
{"binder": "B1", "binding": "binds"}
{"binder": "B2", "binding": "binds weakly"}
{"binder": "B3", "binding": "binds"}
{"binder": "B4", "binding": "binds weakly"}
{"binder": "B5", "binding": "binds weakly"}
